# Results from publication PMC4336329 (PLoS ONE, 2015).
# Out of some 310,000 compounds screened, about 2,200 (0.71%) showed an effect of 50% or more. The effect is printed as a negative number. The list shows a part of the results.
# Target: human ether-à-go-go-related gene (hERG) potassium channel (human, UniProt Q12809)
# Assay: primary screen, population patch clamp on CHO cells stably expressing hERG
# human ether-à-go-go-related gene (hERG) potassium channel, sequence (Q12809 whole entry, looked up): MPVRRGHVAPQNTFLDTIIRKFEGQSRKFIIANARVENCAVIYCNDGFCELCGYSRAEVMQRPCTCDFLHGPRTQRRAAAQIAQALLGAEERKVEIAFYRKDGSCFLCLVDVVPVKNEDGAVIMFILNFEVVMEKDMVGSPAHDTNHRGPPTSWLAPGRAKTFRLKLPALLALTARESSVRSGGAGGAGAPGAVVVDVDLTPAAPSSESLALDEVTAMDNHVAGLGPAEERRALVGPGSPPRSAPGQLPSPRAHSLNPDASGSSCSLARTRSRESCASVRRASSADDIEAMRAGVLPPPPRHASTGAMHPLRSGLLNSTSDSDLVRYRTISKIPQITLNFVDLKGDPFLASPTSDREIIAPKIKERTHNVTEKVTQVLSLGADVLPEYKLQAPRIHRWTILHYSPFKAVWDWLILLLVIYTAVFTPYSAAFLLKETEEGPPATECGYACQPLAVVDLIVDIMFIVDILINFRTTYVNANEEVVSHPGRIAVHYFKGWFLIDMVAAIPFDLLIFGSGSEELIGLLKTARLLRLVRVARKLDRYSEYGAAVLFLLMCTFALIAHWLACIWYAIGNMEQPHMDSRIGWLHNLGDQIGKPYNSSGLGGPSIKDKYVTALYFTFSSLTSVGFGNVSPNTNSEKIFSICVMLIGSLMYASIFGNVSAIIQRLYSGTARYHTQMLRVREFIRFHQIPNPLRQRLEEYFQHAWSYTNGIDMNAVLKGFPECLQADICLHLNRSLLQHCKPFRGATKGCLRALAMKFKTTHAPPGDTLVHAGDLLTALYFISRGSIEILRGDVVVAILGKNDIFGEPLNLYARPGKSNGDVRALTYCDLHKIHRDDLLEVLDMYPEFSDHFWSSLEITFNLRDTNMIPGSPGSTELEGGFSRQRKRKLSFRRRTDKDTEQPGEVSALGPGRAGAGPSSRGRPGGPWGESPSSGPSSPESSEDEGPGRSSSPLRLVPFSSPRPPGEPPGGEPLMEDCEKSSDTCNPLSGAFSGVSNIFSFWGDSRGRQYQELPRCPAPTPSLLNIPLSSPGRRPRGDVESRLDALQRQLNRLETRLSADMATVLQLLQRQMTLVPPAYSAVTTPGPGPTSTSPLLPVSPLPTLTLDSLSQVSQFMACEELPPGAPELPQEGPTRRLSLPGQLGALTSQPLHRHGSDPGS
row,SMILES,"hERG current change (%, negative = inhibition) at 1uM [%]"
1,COc1ccc(CN2CCNC(=O)C2CC(=O)NC2CCCCCC2)c(F)c1 (stereo not drawn),3.97
2,O=C(COC(=O)c1ccc(CNS(=O)(=O)c2ccc(F)c(Cl)c2)cc1)NC1CCCCCCC1,14
3,CCS(=O)(=O)N1CCC(C(=O)OCC(=O)c2ccc(Br)cc2)CC1,7.1
4,CC(NC(=O)C1CCC1)c1ccc2c(c1)OCO2 (stereo not drawn),-3.43
5,O=C(COc1ccccc1)Nc1ccccc1C(=O)NCc1ccco1,6.35
6,COC(=O)c1ccc(CSc2nc3ccccc3s2)o1,2.75
7,Cc1cc(C)nc(SCC(=O)Nc2ccc(N3CCOCC3)c(Cl)c2)n1,5.02
8,COc1ccc(/C=C/C(=O)Nc2ccccc2C)cc1S(=O)(=O)N1CCOCC1,5.61
9,Cc1ccc(NC(=O)CSc2nnc(CNC(=O)c3ccccc3F)o2)cc1,8.09
10,CC(=O)Nc1ccc(S(=O)(=O)N(C)CC(=O)OCC(=O)N2CC(C)OC(C)C2)cc1 (stereo not drawn),10.7
11,CCOC(=O)C[N+](C)(C)CCOC1CC2CCC1(C)C2(C)C.[Cl-] (stereo not drawn),12.2
12,S=C(Nc1ccc(Cl)cc1)N(CCCN1CCOCC1)Cc1ccco1,-8.98
13,Cc1ccc(SCc2[nH]nc3c2C(c2cccnc2)C(C#N)=C(N)O3)cc1 (stereo not drawn),7.49
14,COc1ccc(NC(=O)CCC(=O)Nc2nnc(C3CCCCC3)s2)cc1,14.5
15,CCOc1ccccc1NC(=O)N1C2CCCC1CC(NC(=O)C1CC1)C2 (stereo not drawn),12.7
16,COCCCNC(=O)c1c[nH]c2ccc(S(=O)(=O)N3CCC(C)CC3)cc2c1=O,3.78
17,CNS(=O)(=O)c1cn(CC(=O)NCc2ccccc2OC)cc1S(=O)(=O)NC,4.3
18,CN(Cc1ccc(F)cc1)C(=O)c1ccc(NC(=O)CC2SC(N3CCCC3)=NC2=O)cc1 (stereo not drawn),8.82
19,Cc1ccc2nc(NC(=O)Cn3nc(C)c([N+](=O)[O-])c3C)sc2c1,9.4
20,O=C(Nc1nc(-c2cccnc2)cs1)c1ccccc1F,6.89
21,O=C1CCCN1c1ccc(S(=O)(=O)N2CCN(c3ccccc3)CC2)cc1,16.8
22,CNc1ccc(/C=C(\CCC(=O)O)c2nc3ccccc3s2)cc1[N+](=O)[O-],2.57
23,O=C(Nc1ccc(S(=O)(=O)N2CCCC2)cc1)c1ccc(CN2CCOCC2)cc1,0.61

row,SMILES,"hERG current change (%, negative = inhibition) at 1uM [%]"
1,CCCCc1nc2sc3c(=O)[nH]cnc3c2c2c1CCCC2,8.77
2,O=C(Nc1cccc(-c2cc3ccccc3oc2=O)c1)c1ccc(Br)o1,8.28
3,Cc1cccc(N(CC(=O)O)CC(=O)O)c1,-2.61
4,Cc1sc(NC(=O)/C=C/c2ccc3c(c2)OCO3)nc1-c1ccccc1,8.16
5,C/C(=N\NC(=O)c1ccc2c(c1)OCO2)c1ccc(NS(C)(=O)=O)cc1,11.6
6,O=C(CCNC(=O)c1ccc([N+](=O)[O-])cc1)Nc1ccc(F)cc1F,-4.9
7,Cc1cc2ccccc2n1CCNC(=O)C(C)(C)C,29
8,O=C(NCC1CCCO1)C1CC(=O)N(c2ccc(Cl)cc2)C1 (stereo not drawn),-1.78
9,Cc1nnsc1C(=O)Nc1cc(Cl)ccc1Cl,13.9
10,CCOC1Cc2ccccc2N(C(N)=O)c2ccccc21 (stereo not drawn),14.5
11,Cc1ccc(NC(=O)CN(C)C(=O)c2cccc(S(=O)(=O)NCc3cccs3)c2)cc1,-4.97
12,Cc1ccc2nc(C)c(C(=O)NN=C3CCN(C)CC3)n2c1,16.2
13,COc1ccc(-c2nc3ccccc3n2Cc2ccc(C)cc2)cc1,11.2
14,Cc1ccc2[nH]c3c(=O)n(Cc4ccccn4)cnc3c2c1,7.99
15,CCN(CC)C(=S)SC1CCCCN(C(=O)c2ccccc2)C1=O (stereo not drawn),10.3
16,CN1CCN(CC(O)COCc2ccc3c(c2)OCO3)CC1.Cl (stereo not drawn),4.46
17,CC1CCN(C(=O)CN(c2ccc(Cl)c(C(F)(F)F)c2)S(C)(=O)=O)CC1,2.79
18,CN(CC(=O)Nc1ccc(Cl)c(C(F)(F)F)c1)C(=O)C1CCC1,4.62
19,Cc1ccc(CCNC(=O)C2CCN(S(=O)(=O)c3c(C)nn(C)c3C)CC2)cc1,7.64
20,Cc1cc(-c2ccccc2)cc(C)[n+]1Cc1ccccc1.[O-][Cl+3]([O-])([O-])[O-],6.49
21,CC(=O)n1c(C=Nc2ccccc2)c(O)c2ccccc21,10.8
22,COC(=O)CCCC1=CC2=C(c3ccccc3)C(=O)C(C)(OC(=O)C3CCCC3)C(=O)C2=CN1CCCCO (stereo not drawn),19.7
